According to publication PMC9911399, “Two distinct binding modes provide the RNA-binding protein RbFox with extraordinary sequence specificity”:
Positions count from the first letter of the chain named. Some of the results follow.

T1: RBFOX1 RRM RbFoxmut (Fox-RRM*) (Homo sapiens, UniProt Q9NWB1 109-208, R118D;E147R;N151S;E152T)
T1 sequence: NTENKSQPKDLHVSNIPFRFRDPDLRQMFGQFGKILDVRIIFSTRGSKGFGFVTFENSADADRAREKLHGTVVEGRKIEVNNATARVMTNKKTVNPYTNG

B1: UAUUGAC (DNA:RNA)
RNA: GGGAGACCGGAAUUCAGAUUGUCCUAUUGACUUAAAUCCCGUCGUAGCCACCA
DNA 1: CAATCTGAATTCCGGTCTCCC
DNA 2: TGGTGGCTACGACGGGATT
B2: UCGUUCC (DNA:RNA)
RNA: B1 RNA with A26C, U27G, G29U, A30C
DNA 1: CAATCTGAATTCCGGTCTCCC
DNA 2: TGGTGGCTACGACGGGATT
B3: CGGCAUC (DNA:RNA)
RNA: B1 RNA with U25C, A26G, U27G, U28C, G29A, A30U
DNA 1: CAATCTGAATTCCGGTCTCCC
DNA 2: TGGTGGCTACGACGGGATT
B4: UAACCAU (DNA:RNA)
RNA: B1 RNA with U27A, U28C, G29C, C31U
DNA 1: CAATCTGAATTCCGGTCTCCC
DNA 2: TGGTGGCTACGACGGGATT
B5: GUUACAG (DNA:RNA)
RNA: B1 RNA with U25G, A26U, U28A, G29C, C31G
DNA 1: CAATCTGAATTCCGGTCTCCC
DNA 2: TGGTGGCTACGACGGGATT
B6: UAUUAAU (DNA:RNA)
RNA: B1 RNA with G29A, C31U
DNA 1: CAATCTGAATTCCGGTCTCCC
DNA 2: TGGTGGCTACGACGGGATT
B7: UGGUAUA (DNA:RNA)
RNA: B1 RNA with A26G, U27G, G29A, A30U, C31A
DNA 1: CAATCTGAATTCCGGTCTCCC
DNA 2: TGGTGGCTACGACGGGATT
B8: UGCAUAU (DNA:RNA)
RNA: B1 RNA with A26G, U27C, U28A, G29U, C31U
DNA 1: CAATCTGAATTCCGGTCTCCC
DNA 2: TGGTGGCTACGACGGGATT
B9: AACCUAU (DNA:RNA)
RNA: B1 RNA with U25A, U27C, U28C, G29U, C31U
DNA 1: CAATCTGAATTCCGGTCTCCC
DNA 2: TGGTGGCTACGACGGGATT
B10: ACCCUCU (DNA:RNA)
RNA: GGGAGACCGGAAUUCAGAUUGUCCACCCUCUUUAAAUCCCGUCGUAGCCACCA
DNA 1: CAATCTGAATTCCGGTCTCCC
DNA 2: TGGTGGCTACGACGGGATT
B11: GUGUAGU (DNA:RNA)
RNA: B10 RNA with A25G, C26U, C27G, C28U, U29A, C30G
DNA 1: CAATCTGAATTCCGGTCTCCC
DNA 2: TGGTGGCTACGACGGGATT
B12: GCAGCUU (DNA:RNA)
RNA: B10 RNA with A25G, C27A, C28G, U29C, C30U
DNA 1: CAATCTGAATTCCGGTCTCCC
DNA 2: TGGTGGCTACGACGGGATT
B13: UAACAGC (DNA:RNA)
RNA: B1 RNA with U27A, U28C, G29A, A30G
DNA 1: CAATCTGAATTCCGGTCTCCC
DNA 2: TGGTGGCTACGACGGGATT
B14: UAGAAGA (DNA:RNA)
RNA: B1 RNA with U27G, U28A, G29A, A30G, C31A
DNA 1: CAATCTGAATTCCGGTCTCCC
DNA 2: TGGTGGCTACGACGGGATT
B15: ACGCGAA (DNA:RNA)
RNA: B10 RNA with C27G, U29G, C30A, U31A
DNA 1: CAATCTGAATTCCGGTCTCCC
DNA 2: TGGTGGCTACGACGGGATT
B16: GGUGUUA (DNA:RNA)
RNA: B10 RNA with A25G, C26G, C27U, C28G, C30U, U31A
DNA 1: CAATCTGAATTCCGGTCTCCC
DNA 2: TGGTGGCTACGACGGGATT
B17: AGACUUC (DNA:RNA)
RNA: B10 RNA with C26G, C27A, C30U, U31C
DNA 1: CAATCTGAATTCCGGTCTCCC
DNA 2: TGGTGGCTACGACGGGATT
B18: GACACGG (DNA:RNA)
RNA: B10 RNA with A25G, C26A, C28A, U29C, C30G, U31G
DNA 1: CAATCTGAATTCCGGTCTCCC
DNA 2: TGGTGGCTACGACGGGATT
B19: GGACUUU (DNA:RNA)
RNA: B10 RNA with A25G, C26G, C27A, C30U
DNA 1: CAATCTGAATTCCGGTCTCCC
DNA 2: TGGTGGCTACGACGGGATT
B20: AGUGCUA (DNA:RNA)
RNA: B10 RNA with C26G, C27U, C28G, U29C, C30U, U31A
DNA 1: CAATCTGAATTCCGGTCTCCC
DNA 2: TGGTGGCTACGACGGGATT

target: T1, RBFOX1 RRM RbFoxmut (Fox-RRM*); assay: EMSA; HiTS-Eq, 1 nM pool, 10 min; buffer printed only for the single-RNA assays: 10 mM Tris pH 7.5, 150 mM NaCl, 3.4 mM EDTA, 0.001% NP-40, 30 C; details: tags: His6 N-terminal (pET28a); label: 5' 32P
Procedure, shortened: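 Purified RbFox RRM, wild type or mutant, was incubated for 10 min in 50 µL with 1 nM of a 5′-radiolabelled RNA pool carrying 7 randomized nucleotides, whose flanks were annealed to DNA oligonucleotides, over a series of increasing protein concentrations. Unbound RNA was resolved on 8% native PAGE, cut out, reverse-transcribed, barcoded by PCR and sequenced on an Illumina HiSeq 2500. Relative association constants were derived from changes in read counts for each RNA species versus the control reaction and normalised to the cognate motif.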

| Binder | binding signal |
| --- | --- |
| B1 | 0.0844 KA relative to UGCAUGU |
| B2 | 0.0738 KA relative to UGCAUGU |
| B3 | 0.261 KA relative to UGCAUGU |
| B4 | 0.0684 KA relative to UGCAUGU |
| B5 | 0.114 KA relative to UGCAUGU |
| B6 | 0.0483 KA relative to UGCAUGU |
| B7 | 0.157 KA relative to UGCAUGU |
| B8 | 0.178 KA relative to UGCAUGU |
| B9 | 0.101 KA relative to UGCAUGU |
| B10 | 0.0517 KA relative to UGCAUGU |
| B11 | 0.177 KA relative to UGCAUGU |
| B12 | 0.0815 KA relative to UGCAUGU |
| B13 | 0.0657 KA relative to UGCAUGU |
| B14 | 0.0717 KA relative to UGCAUGU |
| B15 | 0.138 KA relative to UGCAUGU |
| B16 | 0.12 KA relative to UGCAUGU |
| B17 | 0.0578 KA relative to UGCAUGU |
| B18 | 0.0551 KA relative to UGCAUGU |
| B19 | 0.0541 KA relative to UGCAUGU |
| B20 | 0.124 KA relative to UGCAUGU |
